# Results: PubChem BioAssay AID588342 (National Center for Advancing Translational Sciences (NCATS), 2011)
# The campaign covered roughly 360,000 compounds. About 25,000 (6.9%) were called active. The inconclusive results got no clear call from the source; some entries with a clear call stand among them for comparison. Calls follow the shape of the dose curve; as a rule, active = well fitted inhibition curve with a large enough effect; inconclusive = small, poorly fitted or top-dose-only effect; inactive = flat fitted curve, though single readings scatter. Potencies beside an inconclusive call are fits to weak or partial responses and may not hold up.
# Target: Luciferin 4-monooxygenase (Photinus pyralis) (UniProt P08659)
# Test: qHTS profiling assay for firefly luciferase inhibitor/activator using purifed enzyme and Km concentrations of substrates (counterscreen for miR-21 project); also: nearly all actives have a fitted effect of over 55% in size;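 as to activity change, negative = inhibition: plate controls were vehicle for no effect and reference inhibitor for full effect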
# Conditions: purified FLuc, luminescence inhibition; series mostly up to 57.5 µM; activity change, negative = inhibition: at the top concentration
# In short: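 Purified P. pyralis luciferase, 10 nM final, with Km-level 10 uM D-luciferin and 10 uM ATP in 50 mM Tris acetate pH 7.5, 10 mM Mg acetate, 0.01% Tween-20, 0.05% BSA; 6-point qHTS titration about 60 µM downward; luminescence read.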
# Potency is read from the fitted curve at half-maximal effect; tags tell the direction and shape of the fitted curve.
# Sequence of UniProt P08659 (P08659 whole entry, looked up): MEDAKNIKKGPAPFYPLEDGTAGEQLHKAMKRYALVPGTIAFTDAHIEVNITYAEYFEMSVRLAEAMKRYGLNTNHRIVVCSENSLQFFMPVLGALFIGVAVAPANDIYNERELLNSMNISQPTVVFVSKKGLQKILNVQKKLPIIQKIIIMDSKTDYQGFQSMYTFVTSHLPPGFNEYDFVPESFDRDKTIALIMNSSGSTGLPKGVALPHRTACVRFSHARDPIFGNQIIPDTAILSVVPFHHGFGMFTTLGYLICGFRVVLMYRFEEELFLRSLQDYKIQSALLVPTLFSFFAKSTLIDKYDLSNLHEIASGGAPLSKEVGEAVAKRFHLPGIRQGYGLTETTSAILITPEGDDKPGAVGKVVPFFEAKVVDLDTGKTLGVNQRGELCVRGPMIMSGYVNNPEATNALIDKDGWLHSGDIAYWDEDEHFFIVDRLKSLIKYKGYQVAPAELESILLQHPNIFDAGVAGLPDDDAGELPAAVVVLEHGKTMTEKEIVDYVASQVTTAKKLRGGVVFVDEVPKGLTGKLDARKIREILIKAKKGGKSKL
Structure (SMILES),"activity change, negative = inhibition",Potency
CCn1ncc(CNC(=O)CCCSc2nc(-c3ccco3)cc(C(F)(F)F)n2)c1C,inactive: 2.29%,–
Cn1nnnc1SCCNC(=O)C1CCC(=O)N(CCc2cccc(F)c2)C1 (centres undefined),inactive: 1.22%,–
CCOC(=O)Cn1cnc2scc(-c3ccc(C)cc3)c2c1=O,inactive: 0.675%,–
Cc1cc(=O)n2[nH]c(NCc3ccccc3F)nc2n1,–,"inconclusive: 37.9 µM [inhibitor, partial curve, poor fit]"
O=C(Nc1ccccc1)Nc1ccc(S(=O)(=O)N2CCCCC2)cc1,–,"inconclusive: 30.1 µM [inhibitor, partial curve, poor fit]"
O=C1c2ccccc2NC(c2ccccc2Cl)N1N=C1CCCCCC1 (centres undefined),–,active: 12 µM
COc1ccc(/C=N/Nc2nc(C(=O)O)cs2)cc1,–,active: 0.675 µM
O=C(Nc1cccc(F)c1)c1ccc(-c2ccccc2Cl)o1,–,active: 9.53 µM
CN(C)/C=C/C(=O)c1ccn(S(=O)(=O)c2ccccc2)c1,inactive: 1.7%,–
Cc1ccc(S(=O)(=O)Nc2n[nH]nc2C(=O)NC2CCCCC2)cc1,–,"inconclusive: 15.1 µM [inhibitor, partial curve, poor fit]"
CC/C(=N\NC(=O)c1cc(C2CC2)[nH]n1)c1ccccc1,–,active: 13.5 µM
O=C(CN(c1ccccc1F)S(=O)(=O)c1ccccc1)Nc1ccc2c(c1)OCCO2,–,"inconclusive: 26.9 µM [inhibitor, partial curve, poor fit]"
CC(=O)c1cccc(OCc2cc(C(=O)N3CCSCC3)no2)c1,–,active: 10.7 µM
COc1cc2c(cc1OC)C(c1ccc(-c3ccccc3Cl)o1)=NCC2,–,active: 2.13 µM
CN(C)S(=O)(=O)c1ccc(NC(=O)/C=C/c2ccccc2Cl)cc1,–,active: 21.3 µM
Cc1ccc2nc(C(F)C(F)(F)F)[nH]c2c1 (centres undefined),–,active: 19 µM
CCCCOC(=O)c1ccc(Nc2nc3ccc(C)cc3n3cnnc23)cc1,–,"inconclusive: 30.1 µM [inhibitor, partial curve, poor fit]"
Cc1ccc(/C=C2\SC(=S)N(CCC(=O)NNC(=O)c3cccc(O)c3)C2=O)cc1,–,"inconclusive: 6.01 µM [inhibitor, partial curve, poor fit]"
CC(C)n1cnc2c(oc3ccccc32)c1=O,–,active: 16.9 µM
CN(C)c1ccc(NC(=O)C2(c3cccs3)CCOCC2)cc1,–,"inconclusive: 23.9 µM [inhibitor, partial curve]"
O=C(Oc1ccc(Cl)c2cccnc12)N1CCCCC1,–,"inconclusive: 30.1 µM [inhibitor, partial curve, poor fit]"
CCOC(=O)C1=C(C)NC(C)=C(C(=O)OCC)C1C(=O)OCC(=O)N1CCc2ccccc21,inactive: 1.34%,–
CCc1nc(NC(C)(C)C)c2cnn(-c3ccccc3)c2n1,–,active: 19 µM
O=C(Nc1ccc(F)cc1)c1ccc(CSc2ccc(Cl)cc2)o1,–,"inconclusive: 37.9 µM [inhibitor, partial curve, poor fit]"
Cc1sc2c(c1C)C(O)=C(C(=O)Nc1ccccc1)S(=O)(=O)N2C,–,"inconclusive: 37.9 µM [inhibitor, partial curve, poor fit]"

Structure (SMILES),"activity change, negative = inhibition",Potency
Cc1ccc(N=CC=C2OC(C)(C)C(C)(C)O2)c(C)c1,–,active: 7.57 µM
O=C(/C=C/c1cc(Br)ccc1F)Nc1cccnc1,–,"inconclusive: 21.3 µM [inhibitor, partial curve]"
COc1ccc(Nc2nc(C)c(-c3ccccc3)s2)cc1,–,active: 7.57 µM
Clc1ccc(/C=N/NC(=Nc2ccccc2)c2ccccn2)c(Cl)c1,–,"inconclusive: 26.9 µM [inhibitor, single point]"
COc1cccc(C(=O)Nc2nnc(S(=O)(=O)N3CCCCC3)s2)c1,–,"inconclusive: 21.3 µM [inhibitor, single point]"
COc1ccc(Cn2nnnc2C(c2ccccc2)N2CCN(C3CCCC3)CC2)cc1 (centres undefined),inactive: -0.704%,–
COc1ccc(C(=O)NCCc2nc3ccccc3[nH]2)cc1,inactive: -7.48%,–
O=C(NCCOc1ccccc1Cl)c1ncn[nH]1,–,"inconclusive: 37.9 µM [inhibitor, single point]"
CC1COC(=O)C(NNc2ccc(Cl)c(Cl)c2)=N1 (centres undefined),–,"inconclusive: 10.7 µM [inhibitor, partial curve]"
Cc1ccc(C2Nc3cccc4cccc(c34)N2)cc1,–,active: 10.7 µM
Cc1cc(CC(C)C)n(-c2nc3ccccc3c(=O)n2OCC(=O)N(C)C)n1,–,"inconclusive: 37.9 µM [inhibitor, single point]"
COc1cccc(NC(=O)NC2CCN(CC(=O)Nc3ccccc3[N+](=O)[O-])CC2)c1,inactive: -4.62%,–
Cc1ccccc1NC(=O)CSc1nc2ccc(NC(=O)c3ccco3)cc2s1,–,"inconclusive: 12 µM [inhibitor, partial curve]"
Cc1cc(C)c(C(=O)N2CCCC(CNC(=O)C3(c4ccc(Cl)cc4)CC3)C2)c(=O)[nH]1 (centres undefined),inactive: 3.14%,–
N/C(=N\OC(=O)/C=C/c1ccccc1Cl)c1ccccn1,–,active: 0.601 µM
COc1ccc(C2=NS(=O)(=O)N(C)C(C(=O)NCc3ccccn3)=C2)cc1,–,"inconclusive: 26.9 µM [inhibitor, single point]"
CC(C)(C)C(=O)CC(=O)Nc1ccc(Cl)c(N)c1,–,"inconclusive: 23.9 µM [inhibitor, single point]"
O=C(Nc1ccc(Cl)cc1F)C1CC(=O)N(Cc2ccco2)C1 (centres undefined),inactive: 4.87%,–
Cc1ccc2occ(CN3CCN(Cc4ccccc4)CC3)c(=O)c2c1,–,"inconclusive: 19 µM [inhibitor, partial curve]"
COc1cc(/C=C2\C(=N)N3N=C(N4CCOCC4)SC3=NC2=O)ccc1OC(=O)c1ccccc1,–,"inconclusive: 26.9 µM [inhibitor, single point]"
CCOCCn1cnc2sc(C(=O)NCC(=O)OCC)c(C)c2c1=O,–,"inconclusive: 37.9 µM [inhibitor, partial curve, poor fit]"
S=C(NCC1CCCO1)Nc1ccc(Cl)c(Cl)c1 (centres undefined),–,"inconclusive: 37.9 µM [inhibitor, partial curve, poor fit]"
COc1ccc(Cl)cc1NC(=S)NNC(=O)c1cccnc1,–,"inconclusive: 16.9 µM [inhibitor, single point]"
Cc1[nH]c2ccccc2c1/C=N/NC(=S)NC(C)C,–,"inconclusive: 37.9 µM [inhibitor, partial curve, poor fit]"
CCCc1c(NC(=O)Nc2ccc(F)cc2)cnn1-c1ccccc1,–,"inconclusive: 23.9 µM [inhibitor, single point]"

Structure (SMILES),"activity change, negative = inhibition",Potency
COc1cccc(NC(=O)Nc2cc(-c3cn4cccnc4n3)ccc2OC)c1,–,active: 1.35 µM
CCOC(=O)c1ccc(NC(=O)Nc2ccccn2)cc1,–,active: 2.69 µM
Cc1ccc(NC(=O)CN2C(=O)C(c3ccc(F)cc3)=NC2(C)C)c(C)c1,inactive: 2.7%,–
Cc1cccc(C(=O)Nc2sc3c(c2C(=O)Nc2ccccc2)CCC3)c1,–,"inconclusive: 12 µM [inhibitor, partial curve, poor fit]"
COc1ccccc1CNS(=O)(=O)c1ccc(-n2cnnn2)c(OC)c1,inactive: 1.94%,–
O=C(NCc1ccco1)c1cnc2sccn2c1=O,inactive: -2.37%,–
COc1ccc(C(=O)COC(=O)c2nn(C)c(=O)c3ccccc23)c(OC)c1,–,"inconclusive: 30.1 µM [inhibitor, single point]"
COc1ccc(/C=C/C(=O)NC(=S)NNC(=O)c2ccco2)cc1OC,–,"inconclusive: 26.9 µM [inhibitor, partial curve, poor fit]"
O=C(Nc1ccccc1)N(C1=NCCC1)c1ccc(OC(F)F)cc1,inactive: 0.802%,–
O=C(N/N=C/c1ccc(Cl)cc1)C1CC12CCC2 (centres undefined),–,"inconclusive: 37.9 µM [inhibitor, single point]"
Cc1ccc(CNC(=O)c2ccc(NC(=O)c3nsc4ccccc34)cc2)cc1,–,active: 6.75 µM
CCCOc1ccc(CNC(=O)c2cc3oc4ccccc4c3n2C)cc1,inactive: 2.96%,–
COc1ccc(-c2csc(NC(=O)CSc3n[nH]c(N)n3)n2)cc1,–,"inconclusive: 26.9 µM [inhibitor, partial curve, poor fit]"
COc1ccc(C(C)(C)C)cc1NC(=O)c1cccc(S(=O)(=O)N2CCN(C(C)=O)CC2)c1,inactive: 1.86%,–
C=CCN1C(=O)/C(=c2\sc3nc(=O)c(Cc4ccccc4)nn3c2=O)c2ccccc21,–,"inconclusive: 30.1 µM [inhibitor, partial curve, poor fit]"
CCNc1oc(-c2cccc3ccccc23)nc1C#N,–,"inconclusive: 8.49 µM [inhibitor, partial curve, poor fit]"
CC1=NN(c2ccc(C(=O)OC(C)C)cc2)C(=O)/C1=C\C=C\c1ccco1,–,"inconclusive: 10.7 µM [inhibitor, partial curve, poor fit]"
Cc1ccc(NC(=O)Cn2nc(C)c(S(=O)(=O)N(C)C)c2C)cc1,inactive: 2.54%,–
CCOc1cc(/C=C2/SC(=Nc3ccccc3)N(Cc3cccnc3)C2=O)ccc1OCC#N,inactive: 0.857%,–
CCOc1ccc2nc(SC3CC(=O)N(c4cccc(OC)c4)C3=O)sc2c1 (centres undefined),–,"inconclusive: 26.9 µM [inhibitor, single point]"
O=C(OCCc1cc2ccccc2c(=O)o1)N1CCOCC1,–,"inconclusive: 5.36 µM [inhibitor, partial curve, poor fit]"
COC(=O)c1c(-c2ccccc2)csc1NC(=O)C1CC=CCC1C(=O)O (centres undefined),–,"inconclusive: 21.3 µM [inhibitor, single point]"
COc1ccc(C(=O)NCc2ccccc2OC)cc1,inactive: -8.05%,–
Cc1ccc(C)c(Oc2c(C(F)(F)F)oc3c(CN4CCN(C)CC4)c(O)ccc3c2=O)c1,inactive: -1.22%,–
